Laboratory results reported in PubChem BioAssay AID1963576 (National Center for Advancing Translational Sciences (NCATS), 2024).
Hit rate of the full screen: of about 46,000 compounds, about 60 (0.1%) were called active. Not shown: some 3% with an inconclusive outcome. The call rests on the fitted dose curve; in most records, active means well fitted inhibition curve with a large enough effect; inconclusive means small, poorly fitted or top-dose-only effect; inactive means no such curve, though single readings can be large or run the other way. This is one part of the list.

test: Primary qHTS assay for Inhibitors of ovarian cancer metastasis using an organotypic tumor microenvironment (TME) model.; further: nearly all actives have a fitted effect of over 65% in size;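 on activity change, negative = inhibition: plate controls were DMSO wells for no effect and tomatine positive control wells for full effect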; details: SKOV3ip1-GFP adhesion/invasion on 3D omental model, fluorescence; series mostly up to 45.8 µM; activity change, negative = inhibition: at the top concentration
Summary of the method: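 Adhesion/invasion was scored as fixed GFP-labeled SKOV3ip1 cell counts (488/509 nm), normalized to DMSO and tomatine controls. Cancer cells in serum-free medium, with four compound doses (0.36-46 umol/L), sat 2 hr at RT then 16 hr at 37 C on a 48 hr fibroblast/mesothelial/ECM culture.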

Activity change, negative = inhibition, inactive:
Cc1ccc(Cn2c(CO)cnc2SCC(=O)NCc2ccccc2Cl)cc1 -6.57%, COc1ccc(N2CCN(C3(c4ccccc4)C(=O)c4ccccc4C3=O)CC2)cc1 -5.09%, CCCCCCNC(=O)c1c[nH]c2ccc(S(=O)(=O)N(C)c3ccc(C(C)C)cc3)cc2c1=O -1.81%, Cc1cccc(C(=O)Nc2cc3nn(-c4ccc(C(C)C)cc4)nc3cc2C)c1 -8.01%, Clc1cccc(-c2nc3ccccn3c2Nc2ccc3c(c2)OCCO3)c1 -6.1%, COC(=O)c1ccc(Nc2nc(-c3ccccc3Cl)nc3ccccc23)cc1 3.76%, COc1ccc(N2C(=O)CSC23C(=O)N(CC(=O)Nc2ccccc2F)c2ccccc23)cc1 (stereo not given) -1.55%, COc1cccc(OC(=O)CSc2nnc(-c3cccs3)o2)c1 5.09%, COc1cccc(CNC(=O)Cn2nc(-c3ccc(C)cc3)ccc2=O)c1 -12.6%, Cc1ccc(N(C)C(CNS(=O)(=O)c2ccccc2)c2ccccc2)cc1 (stereo not given) -7.55%, COc1ccccc1NC(=O)CSc1ccc(-c2ccccn2)nn1 -7.22%, Cc1cc(OC(C)C(=O)N2CCC(c3nc4ccccc4o3)CC2)ccc1Cl (stereo not given) -4.53%, Cc1ccc(NC(=O)Cn2cc(C(=O)c3ccco3)c3ccccc32)cc1C 0.919%, CCCCN(C)S(=O)(=O)c1ccc(NC2=NS(=O)(=O)c3ccccc32)cc1 4.81%, COc1ccc(-n2ccnc2SCC(=O)Nc2cccc(OC)c2)cc1 -6.74%, CCCNC(=O)C1CCN(C(=O)N2CC(C)Oc3ccccc32)CC1 (stereo not given) 3.46%, CCn1ccc2cc(S(=O)(=O)N3CCCN(C(=O)Nc4cccc(SC)c4)CC3)ccc21 2.47%, CC(C)Cc1ccc(S(=O)(=O)NCc2nc3cccnc3n2Cc2ccccc2)cc1 4.99%, COc1ccc(-c2ccc(CNCCCSc3nnnn3C)o2)cc1Cl -3.28%, Cc1cc2oc(C(=O)Nc3ccc(S(=O)(=O)N4CCC(C)CC4)cc3)cc(=O)c2cc1C 13.2%, CC(C)c1ccccc1Cc1cc(C(=O)Nc2ccc(S(=O)(=O)c3ccccc3C(C)(C)C)cc2)c(O)c(O)c1O -23.7%, Cc1ccc(-n2nc3c(N4CCC(C(=O)NC5CCCCC5)CC4)nnc(C)c3c2C)cc1 10.8%, COc1ccc(NC(=O)c2c(NCc3ccc(OC)c(OC)c3OC)sc3c2CCC3)c(OC)c1 1.55%, COc1ccccc1N1CCN(CCCNC(=O)c2nnc(Cc3ccc(F)cc3Cl)o2)CC1 -2.95%, CC1=C(c2ccc(C)c(C)c2)S(=O)(=O)N=C1N1CCC(C(=O)NCc2ccccc2C)CC1 4.14%, Cc1cccc(-c2noc(-c3ccc(NCc4ccccc4)c([N+](=O)[O-])c3)n2)c1 9.98%, O=C(O)CCc1ccc(NCc2cccc(Oc3ccccc3)c2)cc1 -9.37%, Cc1ccc(N(C)S(=O)(=O)c2ccc(-c3coc(C)n3)cc2)cc1 0.836%, COc1cc(C2C(C(=O)Nc3ccc(Cl)cc3)=C(C)Nc3nc(SC)nn32)cc(OC)c1OC (stereo not given) 2.66%, CCOc1ccc(CCNC(=O)c2cc3sccc3n2CC)cc1OCC -0.238%, Fc1ccc(CSc2nncn3c2cc2occc23)c(Cl)c1 1.23%, CCc1nc2ccc(C(=O)N3CCN(c4cc(C)ccc4C)CC3)cc2nc1CC 17.1%, CC1=C(C(N)=O)C(c2cccc(Br)c2)n2nc(SCc3ccccc3Cl)nc2N1 (stereo not given) 9.46%, CC(C)c1ccc(S(=O)(=O)N2CCN(CC(=O)Nc3ccccc3C(F)(F)F)CC2)cc1 1.77%, CC(C)CCNC(=O)c1ccc2nc(CCc3ccccc3)oc2c1 4.53%, CC(C)Nc1nc2c(S(=O)(=O)c3cccc(Cl)c3)nnn2c2ccsc12 5.35%, Cc1ccc(C(=O)NCC(c2cccs2)S(=O)(=O)c2ccccc2)cc1C (stereo not given) 2.51%, COc1cc(CN(C(=O)Nc2cccc(Cl)c2)c2ccccn2)cc(OC)c1OC -0.75%, COC(=O)c1nnn(CC(=O)Nc2c(C)cccc2C)c1N -7.46%, COc1ccc(CCNc2nc(SCc3ccccc3F)nc3ccccc23)cc1OC -11.4%, COC(=O)c1ccc(C(=O)OC)c(NC(=O)c2c(-c3ccccc3)noc2C)c1 -8.84%, CCOC(=O)c1c(C)oc2nc(C)nc(NCCc3ccc(OC)c(OC)c3)c12 3%, COC(=O)c1sc(N2C(=O)c3oc4ccc(C)cc4c(=O)c3C2c2ccc(O)c(OC)c2)nc1C (stereo not given) 18.6%, CCc1ccc(NC(=O)C2CCCN2S(=O)(=O)c2ccc3nc(-c4ccccc4)[nH]c3c2)cc1 (stereo not given) -13.4%, Cc1csc2nc(COc3ccc(NC(=O)C(C)C)cc3)cc(=O)n12 -22.8%, CCOC(=O)Cc1c(C)nc2cc(-c3ccc(C(C)(C)C)cc3)nn2c1C -20.8%, CCOC(=O)c1c(NC(=O)CSc2nc(-c3ccc(OC)cc3)cc(C(F)(F)F)n2)sc(C)c1C 3.98%, Cn1c(=O)n(CC(=O)O)c(=O)c2c1nc1n2CCCN1c1ccc(Cl)cc1 20.5%, COc1ccc(-n2ncc(C(=O)N3CCN(C4CCCCC4)CC3)c2C2CCN(C(=O)OC(C)(C)C)CC2)cc1 8.26%, C=CCc1ccccc1OCc1nc2ccc(C)cc2[nH]1 -8.44%, Cc1ccccc1NC(=O)CC1NCCNC1=O (stereo not given) -13.9%, CCc1ccccc1NC(=O)c1ccc(Cn2nc(N3CCN(c4ccccc4)CC3)ccc2=O)o1 1.75%, Cc1cccc(N2CCN(C(=O)C3CCN(S(=O)(=O)c4c(C)noc4/C=C/c4ccccc4F)CC3)CC2C)c1 (stereo not given) -4.52%, CCCn1c2ccccc2c2cnn(CC(=O)N(CC)c3cc(C)ccc3C)c(=O)c21 3.88%, CCOC(=O)c1cc2c(=O)n3ccccc3nc2n(Cc2ccco2)c1=NC(=O)c1cccc(C)c1 29.8%, CCCNC(=O)CSc1c2c(nc3ccc(Cl)cc13)CCCC2 -13.3%, CCOc1ccccc1NC(=O)c1cc2cc3cc(C)ccc3nc2s1 2.96%, CCOc1ccc(NC(=O)CC2C(=O)N(c3ccccc3)C(=O)N2C2CCCC2)cc1 (stereo not given) -21.6%, Cc1ccc(CNC(=O)Cn2nc(N3CCN(c4ccccc4)CC3)ccc2=O)cc1 8.4%, Cc1cccc(N2CCN(C(=O)c3cnn(-c4ccc(F)cc4F)c3C3CCN(C(=O)OC(C)(C)C)CC3)CC2)c1C 2.4%, COCc1cc(C)nc2sc(C(=O)Nc3ccc(C(C)=O)cc3)c(N)c12 2.68%, CNC(=O)CCCN1C(=O)CCn2nc(-c3cn(C)c4ccccc34)cc21 -4.93%, CCc1cccc(NC(=O)CSc2nc3ccccc3nc2N2CCCCC2)c1 -20.6%, COc1ccc(OCC(=O)Nc2cccc(C(=O)OCc3cc(=O)n4nc(C)sc4n3)c2)cc1 0.0759%, COc1cccc(NC(=O)c2sc3nc(C)c(C(=O)Nc4ccc(C)cc4C)c(-c4ccco4)c3c2N)c1 -8.29%, Cc1nc2c3ccccc3nc(NNC(=O)CCC(=O)N3CCN(c4cc(Cl)ccc4C)CC3)n2n1 5.7%, Cc1ccc(C)c(N2CCN(C(=O)CCS(=O)(=O)c3cc(Br)cc4c3N(C(=O)C3CC3)CC4)CC2)c1 -4.11%, COC(=O)c1ccc2c(=O)n(CCCCCC(=O)N3CCN(c4cc(C)ccc4C)CC3)c(=O)[nH]c2c1 10.2%, COc1cc2nc(NCCc3ccccc3)n3nc(-c4cccnc4)nc3c2cc1OC 2.5%, Cc1nn(-c2ccccc2)c2sc(C(=O)Nc3cccc(Cl)c3)cc12 -15.1%, CCOC(=O)c1c(NC(=O)/C=C/c2ccc(OCC)cc2)sc(C(C)=O)c1C -7.13%, CC(=Cc1ccccc1)C=C1SC(=S)N(CC(=O)O)C1=O 2.99%, CCOc1ccc(NC(=O)CC2C(=O)N(c3ccc(OC)cc3)C(=O)N2C2CCCCC2)cc1 (stereo not given) 9.72%, COc1ccc(CNC(=O)C(Cc2ccccc2)NS(=O)(=O)c2ccc3c(c2)CCN3C(C)=O)cc1 (stereo not given) 3.72%

outcome, inactive:
N#C/C(=C/c1ccccc1Cl)c1nc2ccccc2c(=O)[nH]1, CC(=O)Nc1ccc(Nc2nc3c(S(=O)(=O)c4cc(C)ccc4C)nnn3c3ccsc23)cc1, Cc1cc2nn(-c3ccc(F)cc3)nc2cc1NC(=O)c1cccc([N+](=O)[O-])c1C, Cc1ccc(CSCCNC(=O)C2CCN(S(=O)(=O)Cc3ccccc3)CC2)cc1, Cc1ccc(CNC(=O)C2CCC(CNS(=O)(=O)c3ccc(C)cc3)CC2)cc1 (stereo not given), COc1ccc(-n2ncc(C(=O)N3CCN(C(=O)c4ccco4)CC3)c2C2CCN(C(=O)OC(C)(C)C)CC2)cc1, Cc1ccc(/C=C/C(=O)N2CCC(c3nc4ccccc4o3)CC2)cc1, CCCCCOc1ccccc1CN1C(=O)C(=O)c2cc(C)ccc21, Cc1ccc(NC(=O)CN2C(=O)COc3ccc(S(=O)(=O)N4CCOCC4)cc32)cc1N(C)C, Cc1nn(CC(=O)NCCc2ccccc2)c(=O)c2nn(-c3ccccc3)c(C)c12, CCCCC(CC)CNC(=O)CCCCn1c(=O)[nH]c2ccsc2c1=O (stereo not given), COc1ccc(C2CC(=O)c3cnc4c(-c5ccc(F)cc5)c(C)nn4c3C2)cc1OC (stereo not given), CCN(CC)S(=O)(=O)c1ccc2c(c1)c(=O)c(C(=O)NCCc1ccccc1)cn2C, Cc1ccc(NC(=O)c2c3c(nc4ccccc24)C(=O)N(C2CCCCC2)C3)cc1F, Cc1cc(=O)n(Cc2ccccc2)c2c1c(C)nn2-c1ccccc1, Cc1ccc(NC(=O)Nc2cn(C)c(=O)c3ccccc23)c(Cl)c1, Cc1ccc2oc(=O)c3cnn(CC(=O)N4CCN(c5ccccc5F)CC4)c3c2c1, COc1ccc(-n2c(SCC(=O)NCc3ccco3)nc3c([nH]c4ccccc43)c2=O)cc1, Cc1ccc(NC(=O)CSc2nc3ccccc3c(=O)n2CCC(=O)NC2CCCCC2)cc1C, CCC(=O)N1CCc2cc(CNS(=O)(=O)c3ccc(C(C)C)cc3)ccc21, CCCSc1ncc(Cl)c(C(=O)N2CCN(c3cccc(Cl)c3)CC2)n1
